PubChem BioAssay AID2546 (National Center for Advancing Translational Sciences (NCATS), 2010)
Among all 310,000 compounds or so, about 11,000 (3.5%) were called active. The shares of active, inactive and inconclusive entries below differ from those in the screen. Calls follow the shape of the dose curve; as a rule, active = well fitted inhibition curve with a large enough effect; inconclusive = small, poorly fitted or top-dose-only effect, or effect the other way; inactive = flat fitted curve, though single readings scatter. No potency is given beside an inconclusive call; the fits are too rough.
% is scaled to controls: 0 for no effect and ±100 for the full control effect; potency is read from the fitted curve at half-maximal effect; tags tell the direction and shape of the fitted curve.

Test: VP16 counterscreen qHTS for inhibitors of ROR gamma transcriptional activity;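 also: Gal4-VP16 expression switched on by copper sulfate through the metallothionein promoter; nearly all actives have a fitted effect of over 50% in size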
Conditions: Drosophila S2 Gal4-VP16 UAS-luciferase, luminescence, 20 h; activity, negative = inhibition: at 53.6 µM (top of the series)
In the case of OCCCCNc1cccc2ccccc12, the “activity, negative = inhibition” value is reported as inactive: 8.13%.
For Cn1c(CNc2ccc(O)cc2)nc2ccccc21, the Potency was inconclusive [inhibitor, single point].
For CCCCC1CC(C)(C(=O)CSc2nc3ccccc3s2)OC1=O (stereo not drawn), the Potency was inconclusive [inhibitor, single point].
For Cc1cc(C)c(NC(=O)CSc2nnc(SCC(=O)Nc3c(C)cc(C)cc3C)n2N)c(C)c1, the “activity, negative = inhibition” value was inactive: 3.6%.
In the case of CN(C)CCC(=O)c1ccc(Cl)cc1, the Potency is reported as inconclusive [inhibitor, single point].
With N=C1C(c2nc3ccccc3s2)=C(O)CN1NC(=O)c1ccccc1[N+](=O)[O-] the “activity, negative = inhibition” value was inactive: -3.35%.
For O=C(N/N=C/c1cc2ccccc2[nH]1)c1ccccc1Cl, the “activity, negative = inhibition” value was inactive: 27%.
With C=CCN(CC=C)C(=O)c1cccc(OC2CCN(CC(C)(C)C)CC2)c1 the “activity, negative = inhibition” value was inactive: -16.9%.
In the case of COc1cc2c(cc1NC(=O)CSc1nccn1C)oc1ccccc12, the Potency is reported as inconclusive [inhibitor, single point].
For CC(=O)Oc1c(C)c(OC(C)=O)c2c(c1C(C)=O)OC1CC(=O)C(C(C)=O)=C(O)C21C (stereo not drawn), the “activity, negative = inhibition” value was inactive: 20.7%.
In the case of Cc1cc(NC(=S)NC(=O)CC(C)C)ccc1Br, the Potency is reported as inconclusive [inhibitor, single point].
For CCN1CCN(Cc2ccc(NC(=O)c3ccc(C)c(NC(=O)c4nccn4C)c3)cc2C(F)(F)F)CC1, the Potency was inconclusive [inhibitor, single point].
With Cc1ccc(-n2ncc3c2CCCC3NC(=O)c2ccoc2)cc1C (stereo not drawn) the “activity, negative = inhibition” value was inactive: -19.3%.
For Cc1ccc(O)c(-c2cc(C(=O)Nc3ccc(S(=O)(=O)N4CC(C)OC(C)C4)cc3)[nH]n2)c1 (stereo not drawn), the Potency was inconclusive [inhibitor, single point].
In the case of N#CC12COC3(CCCCC3C1(C#N)C#N)OC2=N (stereo not drawn), the “activity, negative = inhibition” value is reported as inactive: 2.24%.
With COc1ccc(CCNC(=O)CCCOc2ccc(C)cc2)cc1OC the “activity, negative = inhibition” value was inactive: -7.98%.
With c1ccc(Cn2nnnc2C(c2cccs2)N2CCc3ccccc3C2)cc1 (stereo not drawn) the Potency was inconclusive [inhibitor, single point].
With CC1(C)Oc2ccc(C(=O)NC3CCCCC3)cc2N(CC#N)C1=O the “activity, negative = inhibition” value was inactive: 12.5%.
In the case of CCOc1cccc(C(=O)NC(=S)Nc2cccc(NC(=O)c3ccccc3Cl)c2)c1, the Potency is reported as active: 0.631 µM.
In the case of CCn1ccnc1CN1CCC(CO)(CCOc2ccccc2)CC1, the “activity, negative = inhibition” value is reported as inactive: -2.94%.
With CN(C)S(=O)(=O)c1ccc(-c2csc(N/N=C/c3ccc(O)cc3)n2)cc1 the Potency was inconclusive [inhibitor, single point].
For Cc1ccccc1NC(=S)N1CCN(Cc2ccc3c(c2)OCO3)CC1, the Potency was inconclusive [inhibitor, single point].
In the case of COc1ccc(C(C)NC(=S)NCc2ccc(F)cc2)cc1 (stereo not drawn), the Potency is reported as active: 1 µM.
In the case of CCOc1cc(CNC(C)(C)CO)cc(Br)c1OCc1ccc(Cl)cc1Cl, the Potency is reported as inconclusive [inhibitor, partial curve].
In the case of CCN1C(c2ccccc2)C(C)C(=O)C(C)C1c1ccccc1 (stereo not drawn), the Potency is reported as inconclusive [inhibitor, single point].
In the case of O=C(NC(=S)Nc1ccc(Cl)cc1)c1ccccc1, the Potency is reported as inconclusive [inhibitor, single point].
In the case of CCOC(=O)C(CC)Sc1nnc(COc2ccc(C)cc2)n1-c1ccccc1 (stereo not drawn), the “activity, negative = inhibition” value is reported as inactive: -5.63%.
In the case of COc1cccc(C(=O)CC(C(=O)O)c2ccc(Cl)cc2)c1 (stereo not drawn), the “activity, negative = inhibition” value is reported as inactive: 4.23%.
For CCOC(=O)c1[nH]c(C)c(C(=O)Nc2ccc3c(c2)CCC3)c1C, the Potency was inconclusive [inhibitor, single point].
With Oc1ccc(/C=N/NC(=S)Nc2cccnc2)cc1O the Potency was inconclusive [inhibitor, single point].
In the case of COc1ccc(NC(=O)c2cccc3ccccc23)cc1, the Potency is reported as inconclusive [activator, single point].
With C/C(=N\Nc1nc2ccccc2s1)c1ccc2c(c1)OCO2 the Potency was inconclusive [inhibitor, single point].
In the case of Cc1ccccc1NC(=O)CCc1c(C)nn(-c2ccc(N3CCCCC3)nn2)c1C, the “activity, negative = inhibition” value is reported as inactive: 8.46%.
With CSCCC(NC(=O)c1ccco1)C(=O)Nc1ccncc1 (stereo not drawn) the “activity, negative = inhibition” value was inactive: 2.14%.
For O=C(CCN1CCCC1=O)NC1CCCc2c1cnn2-c1ccc(F)cc1F (stereo not drawn), the “activity, negative = inhibition” value was inactive: 5.85%.
For Cc1cc(NC(=O)c2ccc(S(=O)(=O)N3CCOCC3)cc2)nc2c1c(=O)oc1ccccc12, the “activity, negative = inhibition” value was inactive: -2.07%.
For Cc1cc(C)cc(NC(=S)N2CCN(S(=O)(=O)c3ccccc3)CC2)c1, the Potency was inconclusive [inhibitor, single point].
With O=C(CCCCCNC(=O)N1CCn2c1nc1ccccc12)NCc1ccc(F)cc1 the “activity, negative = inhibition” value was inactive: 2.77%.
In the case of CCc1ccccc1S(=O)(=O)Cc1ccc(C(=O)NCc2cccs2)o1, the “activity, negative = inhibition” value is reported as inactive: 8.61%.
For CCOC(=O)C(=Cc1ccc(OCc2ccc([N+](=O)[O-])cc2)c(OC)c1)C(=O)OCC, the Potency was inconclusive [inhibitor, single point].
In the case of CCC1S/C(=N/N=C/c2ccco2)NC1=O (stereo not drawn), the Potency is reported as inconclusive [inhibitor, single point].
In the case of O=C(c1ccco1)N(Cc1nc2ccccc2c(=O)[nH]1)C1CCCC1, the Potency is reported as active: 8.91 µM.
With O=C(CCCc1ccccc1)Nc1cccc([N+](=O)[O-])c1 the “activity, negative = inhibition” value was inactive: 3.32%.
In the case of CC(=O)Nc1ccc(S(=O)(=O)Nc2ccc(Cl)nn2)cc1, the Potency is reported as inconclusive [activator, single point].
With O=C(CSc1nnc(-c2ccccc2O)o1)N1CCc2ccccc2C1 the Potency was inconclusive [inhibitor, single point].
In the case of C=CCNC(=S)NN=C1CCC(c2ccccc2)CC1 (stereo not drawn), the Potency is reported as active: 20 µM.
With COc1cc(SC)ccc1C(=O)Nc1ncc(Cl)cc1Cl the Potency was inconclusive [activator, partial curve].
For CSCC(=O)N1CCCC(C(=O)c2cc(F)ccc2F)C1 (stereo not drawn), the Potency was inconclusive [activator, single point].
With O=C(CCCN1C(=O)/C(=C/c2ccc(F)cc2)SC1=S)NCCCn1ccnc1 the Potency was inconclusive [inhibitor, partial curve].
In the case of C=CCNc1nc(-c2cc3ccccc3o2)cs1, the Potency is reported as inconclusive [inhibitor, single point].
With Cc1ccc2nc(SCC(=O)c3ccc(O)cc3O)[nH]c2c1 the Potency was active: 3.16 µM.
With COC(=O)CS(=O)(=O)c1ccc2c(c1)CC(=O)N2 the “activity, negative = inhibition” value was inactive: 18.4%.
For CN(C)c1ccc(-c2n[nH]c(=S)n2-c2ccccc2)cc1, the Potency was inconclusive [inhibitor, single point].
In the case of Cc1ccc(NC(=S)NCc2ccccc2)cc1[N+](=O)[O-], the Potency is reported as inconclusive [inhibitor, single point].
With CC(Oc1ccc(F)cc1)C(=O)NN (stereo not drawn) the Potency was inconclusive [inhibitor, single point].
For O=C(Nc1cc(F)ccc1F)N1CCN(c2ccnc3cc(Cl)ccc23)CC1, the Potency was active: 12.6 µM.
With CC(=O)N1CCCc2ccc(NS(=O)(=O)c3ccc(C)c(C)c3)cc21 the Potency was inconclusive [inhibitor, single point].
In the case of COC(=O)c1ccc(C(=O)NC(=S)Nc2nc3c(s2)CC(C)CC3)cc1 (stereo not drawn), the Potency is reported as active: 2 µM.
For CC(=O)c1sc(NC(=O)c2ccc(C)cc2)nc1C, the “activity, negative = inhibition” value was inactive: -5.98%.
For COC(=O)c1cn[nH]c1NC(=S)Nc1ccccc1C, the Potency was inconclusive [inhibitor, single point].
In the case of O=C(N/N=C/c1ccc2c(c1)OCO2)c1cccc(NC(=O)c2ccccc2Cl)c1, the Potency is reported as inconclusive [inhibitor, single point].
For CSc1ccccc1NC(=S)N/N=C/c1cccn1Cc1ccc(F)cc1, the Potency was inconclusive [inhibitor, single point].
For CC(C)CCn1c2ccccc2c2cc(CC(N)=O)ccc21, the “activity, negative = inhibition” value was inactive: -15.2%.
For O=C(N/N=C/c1cc(Cl)ccc1O)c1ccccc1Br, the Potency was active: 1.26 µM.
For Cc1cc(C)c(C(=O)/C=C/c2ccc(C(C)C)cc2)c(=O)[nH]1, the Potency was active: 31.6 µM.
With CCOC(=O)/C=c1\s/c(=C\c2ccc3cc(OC)ccc3c2)c(=O)n1CC(=O)NCc1ccc2c(c1)OCO2 the “activity, negative = inhibition” value was inactive: 0.694%.
With CCOC(=O)c1cccc(C(=O)Nc2nc3ccc(OC)cc3s2)n1 the Potency was inconclusive [inhibitor, single point].
In the case of Cc1ccc2oc(-c3ccccc3)c(C(=O)O)c(=O)c2c1, the Potency is reported as active: 11.2 µM.
With Cc1ccc(O)c(C2=Nc3ccccc3N=C(c3ccc([N+](=O)[O-])cc3)C2)c1 the Potency was inconclusive [activator, single point].
With Cc1ccc(NC(=O)c2ccc3nc(N4CCOCC4)sc3c2)c(Cl)c1 the Potency was inconclusive [inhibitor, single point].
For Cc1ccc(C2=NC(C(F)(F)F)(C(F)(F)F)c3c(n(-c4ccc(F)cc4)c(=O)[nH]c3=O)N2)cc1, the “activity, negative = inhibition” value was inactive: -12.4%.
For C/C(=N\NC(=O)CC#N)c1cc2ccccc2oc1=O, the Potency was active: 6.31 µM.
In the case of CC1CCC(C(C)C)C(OC(=O)C[n+]2cc(-c3ccc(Cl)cc3)n3c2CCCCC3)C1 (stereo not drawn), the Potency is reported as active: 10 µM.
With COC(=O)c1c(-c2ccc(C)cc2)csc1NC(=O)C1CC=CCC1C(=O)O (stereo not drawn) the “activity, negative = inhibition” value was inactive: 16.6%.
For O=C1C(=O)N(Cc2ccccc2)C(=O)N1CCOc1ccccc1, the “activity, negative = inhibition” value was inactive: 13%.
With CNC(=S)Nc1ccc(OCc2ccccc2)cc1 the Potency was inconclusive [inhibitor, single point].
With CCOC(=O)N1CCN(c2nc(-c3cccc(OC)c3)cc(C(F)(F)F)n2)CC1 the “activity, negative = inhibition” value was inactive: -4.37%.
For Cc1cc(C)n(CC(=O)N/N=C/c2cccs2)n1, the Potency was inconclusive [inhibitor, partial curve, poor fit].
